Hit rate of the full screen: of about 130,000 compounds, about 550 (0.42%) were called active. Inconclusive means that the source gave no clear call. Such entries were picked first, then a sample of the others. The call rests on the fitted dose curve; in most records, active means well fitted inhibition curve with a large enough effect; inconclusive means small, poorly fitted or top-dose-only effect, or effect the other way; inactive means flat fitted curve, though single readings scatter. No potency is given beside an inconclusive call; the fits are too rough.
Experiment: qHTS Assay for Inhibitors of the ERK Signaling Pathway using a Homogeneous Screening Assay; Stimulation with EGF; further: nearly all actives have a fitted effect of over 55% in size
Settings: HEK293-V1b, EGF-stimulated phospho-ERK AlphaScreen
How it was run: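 Stably V1b-transfected HEK293 cells; 30 min compound, then EGF 25 nM final for 5 min at 37C; 10 min lysis; phospho-ERK by AlphaScreen after 5 hr beads at room temperature.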
Potency means the concentration at half of the fitted maximal effect; tags describe the fitted curve by direction and shape.

| Compound | Potency |
| --- | --- |
| CC(=NCCN1CCN(C(C)=C2C(=O)c3ccccc3C2=O)CC1)C1=C(O)CC(C)(C)CC1=O | inactive |
| Cc1ccc2nc(/N=C(\N)NC(=O)NC3CCCCC3)nc(C)c2c1 | inconclusive [inhibitor, single point] |
| Cc1ccc2c(c1)Oc1ccc(NC(=O)CCl)cc1C(=O)N2 | inactive |
| O=C(Nc1ccccn1)c1onc2c1CCCC2 | inactive |
| CCOc1ccc(NC(=O)c2cc3ccccc3cc2O)cc1 | inconclusive [inhibitor, full curve, poor fit] |
| Cc1cccc(OCC(=O)N2CCN(c3nnc(-c4ccccc4)c4ccccc34)CC2)c1 | inactive |
| CC1(C)CC(N=c2cc(-c3ccccc3)oc3ccc(Cl)cc23)CC(C)(C)N1 | inconclusive [inhibitor, single point] |
| NS(=O)(=O)c1ccc(CCNC(=O)c2cc(-c3ccc(Br)cc3)nc3ccccc23)cc1 | inactive |
| CC(C)n1cnc2c(Nc3cccc(Cl)c3)nc(NCCCO)nc21 | inconclusive [inhibitor, partial curve] |
| O=C(CSCc1ccc(C(=O)O)cc1)Nc1ccccc1 | inactive |
| O=[N+]([O-])c1ccc(NC(=S)N2CCN(c3ccccc3)CC2)cc1 | inconclusive [inhibitor, partial curve] |
| NC1=NC(=O)/C(=C/c2ccsc2)S1 | inactive |
| C[C@@H]1O[C@@H](OC[C@H]2O[C@@H](Oc3c(-c4ccc(O)c(O)c4)oc4cc(O)cc(O)c4c3=O)[C@H](O)[C@@H](O)[C@@H]2O)[C@H](O)[C@H](O)[C@H]1O | inconclusive [inhibitor, full curve] |
| Brc1ccc(Nc2c3c(nc4ncnn24)CCC3)cc1 | active: 25.1 µM |
| COc1ccc(N2CCN(C(=O)c3cccnc3)CC2)c([N+](=O)[O-])c1 | inactive |
| C[N+](C)(C)CCC(=O)c1cccc2ccccc12 | inconclusive [inhibitor, single point] |
| O=C(COC(=O)[C@@H]1CCCN1C(=O)c1cccs1)Nc1ccc(F)cc1[N+](=O)[O-] | inconclusive [inhibitor, partial curve] |
| C=Cc1c(C)/c2[n-]/c1=C\c1[n-]c(c(CC)c1C)/C=c1\[n-]c3c(c1C)C(=O)C(C(=O)[O-])C=3c1[n-]c(c(C)c1CCC(=O)[O-])\C=2.[Cu].[Na+].[Na+] (centres undefined) | inactive |
| OCCNc1nc(-c2ccccc2)nc2ccccc12 | inconclusive [inhibitor, single point] |
| Cc1ccc(CN2CCN(/N=C/c3ccc(N(C)C)cc3)CC2)cc1 | inconclusive [inhibitor, partial curve] |
| C/C(=N\Nc1ccc(C(=O)c2c(C)cc3ccccn23)cc1[N+](=O)[O-])c1ccc(O)cc1 | inconclusive [inhibitor, partial curve] |
| COc1ccc2c(c1)CCC1C2=NN(/C(C)=C\C(C)=O)C1c1ccc(F)cc1 (centres undefined) | inconclusive [activator, full curve, poor fit] |

| Compound | Potency |
| --- | --- |
| C/C(=N\Nc1ccc([N+](=O)[O-])cc1)c1ccc(O)cc1 | inconclusive [inhibitor, single point] |
| COc1cccc(CNc2ccc(N3CCC(C)CC3)cc2)c1OC | inconclusive [inhibitor, single point] |
| Cc1ccc(-c2csc(NC(=O)c3cc([N+](=O)[O-])ccc3N3CCOCC3)n2)cc1 | inactive |
| COC(=O)c1ccc(C(/C=C/[C@@H](C)C(=O)NCc2ccccc2)NC(=O)OCc2ccccc2)cc1 (some centres undefined) | inactive |
| O=C(OCc1nc2scc(-c3ccccc3)c2c(=O)[nH]1)c1cc(Cl)ccc1[N+](=O)[O-] | inactive |
| CC(C)(C)C(=O)N1CCN(c2ccc(Cl)cc2[N+](=O)[O-])CC1 | inconclusive [inhibitor, single point] |
| COCCCNCCCOc1ccc(C)cc1Br | inactive |
| COc1ccc(-c2cc(C)nc3c(-c4ccccc4)cnn23)cc1 | inconclusive [activator, single point] |
| CCCCOC(=O)c1ccc(O)cc1 | inconclusive [inhibitor, single point] |
| O=C(O)c1cccc(Nc2cc(Cl)c3nonc3c2[N+](=O)[O-])c1 | inactive |
| CC(=O)c1c(COC(=O)c2cccc(C)c2)nc2ccccc2[n+]1[O-] | inconclusive [inhibitor, partial curve] |
| Cc1csc2ncnc(N3CCN(C(=S)Nc4ccc(C(F)(F)F)cc4)CC3)c12 | inconclusive [inhibitor, single point] |
| N#C/C(=N/Nc1ccc([N+](=O)[O-])cc1)C(=N)N1CCCCC1 | inconclusive [inhibitor, single point] |
| O=C(N/N=C/c1cc2c(cc1Br)OCO2)C1COc2ccccc2O1 (centres undefined) | inconclusive [inhibitor, single point] |
| Cc1c(C(=O)Nc2ccc(Cl)cc2)c2ccccn2c1CCc1ccncc1 | inconclusive [inhibitor, partial curve] |
| COc1ccccc1-c1cc(=O)c2cccc(OC)c2o1 | inactive |
| O=C(CNc1cccc2ccccc12)c1ccc([N+](=O)[O-])cc1 | inconclusive [inhibitor, single point] |
| CCN1C(=O)C(CC(=O)Nc2ccc(OC)cc2)N(CCCN2CCN(c3ccc(F)cc3)CC2)C1=S (centres undefined) | inconclusive [inhibitor, single point] |
| CC(=O)c1ccc(-c2ccc(C(=O)N3CCCc4ccccc43)o2)cc1 | inconclusive [inhibitor, single point] |
| Cc1ccn2c(NC3CCCC3)c(-c3ccsc3)nc2c1 | inconclusive [inhibitor, partial curve] |
| COc1cc(/C=C2\SC(=S)N(C(C(=O)O)c3ccccc3)C2=O)ccc1O (centres undefined) | inconclusive [inhibitor, partial curve] |
| O=C1ON=C(c2ccccc2)/C1=C/c1ccc(-c2ccccc2[N+](=O)[O-])o1 | inconclusive [inhibitor, single point] |
